What is called % Inhibition is the drop in the measured response relative to a control, in per cent.

Hit rate of the full screen: of about 150,000 compounds, about 540 (0.36%) showed an effect of 50% or more. Some of the results follow.

The assay concerns Plasmodium falciparum. Briefly: Primary screen in NF54 nanoGlo assay, in single point, at 2uM, 72h; a lower Z score goes with more inhibition. The format is functional, Erythrocyte. The note with it: timepoint 72 hour.
`O=C(Cn1c(-c2cccs2)cc2ccccc21)NC1CCN(Cc2ccccc2)CC1`: the “% Inhibition” value was 3% and the Z score is -0.31.
For `CC1=C(C(=O)c2ccccc2)[C@@](NC(=O)c2cccc(C(F)(F)F)c2)(C(F)(F)F)C(=O)N1CCc1ccc(F)cc1`, in that order: 14% and -1.51.
For `O=C(NCC1CCOCC1)Nc1ccc(Cl)cc1-n1cccn1`, the “% Inhibition” value is recorded as -2% and the Z score is recorded as 0.45.
Regarding `COCC(=O)N(Cc1ccccc1)[C@H]1CCOc2ccc(OC)cc21`, the “% Inhibition” value is reported as 13% and the Z score is -1.71.
For the compound `O=C1CC[C@@]2(CCCN(c3ccc(F)cn3)C2)CN1Cc1ccccc1`, the “% Inhibition” value is given as -14% and the Z score is listed as 1.62.
For `CCN(CC)C(=O)N1C[C@@H](Oc2cccnc2)C[C@@H]1C(=O)N1CCOCC1` the same measures were -17% and 3.03.
As for `CN(C(=O)COc1cccnc1)[C@H]1COC[C@@H]1O`, the “% Inhibition” value is -7% and the Z score is recorded as 0.83.
Turning to `O=C(NCc1ccccn1)c1cc(-c2ccccc2)cc(Cl)c1O`, the “% Inhibition” value was -2% and the Z score is given as 0.26.
As for `COCC(=O)N1CCc2nc(N3CCCCC3)nc(Oc3ccccc3)c2C1`, the “% Inhibition” value is -7% and the Z score is recorded as 1.14.
In the case of `CCC(=O)Nc1ccc(F)c(NC(=O)N(CC)[C@H]2COC[C@@H]2O)c1`, the “% Inhibition” value was -8% and the Z score came out at 1.03.
For `C[C@H]1CCCN(CCCNC(=O)C(=O)Nc2cccc3[nH]ccc23)C1` the same measures were -1% and 0.12.
For `CCC1(CC)NC(=O)N(CC(=O)N2CC(C)NC(C)C2)C1=O` (stereo not drawn), in that order: -9% and 1.34.
In the case of `Cc1cc(CC(=O)NC2CCCCC2C(N)=O)no1` (stereo not drawn), the “% Inhibition” value is listed as -1% and the Z score turned out to be 0.09.
As for `COc1cc(CNn2nnnc2N)cc(Br)c1OCc1ccc(Cl)cc1Cl`, the “% Inhibition” value is -32% and the Z score was 3.72.
Turning to `O=C(c1cn2c(n1)CCCC2)N1CC[C@H](Cc2nccs2)C1`, the “% Inhibition” value is on record as -2% and the Z score stood at 0.41.
In the case of `O=S(=O)(c1ccc2c(c1)CCN2)N1CCCCCC1`, the “% Inhibition” value is recorded as -6% and the Z score was 0.87.
For `NC(=NCc1ccc(Cl)cn1)N1CCCCCC1`, the “% Inhibition” value amounted to 4% and the Z score is reported as -0.54.
On to `Cc1cc(C(F)(F)F)nn1CCNC(=O)CC[C@@H]1NC(=O)NC1=O`, for which the “% Inhibition” value is given as -5% and the Z score was determined as 0.75.
As for `NC(=O)c1cnc(N[C@H]2CCCN(c3ncccn3)C2)c(Cl)c1`, the “% Inhibition” value is reported as 9% and the Z score is listed as -1.2.
As to `COc1ccc(CC/N=C2\CCCc3ccccc3N2)cc1OC`, the “% Inhibition” value is recorded as -1% and the Z score was 0.18.
As for `CCC1(C)OC(=O)N(CCC(=O)Nc2ccccc2C(F)(F)F)C1(C)O` (stereo not drawn), the “% Inhibition” value is listed as 5% and the Z score is -0.68.
For `CCCOc1ccc(CC(=O)NC2(c3nnc[nH]3)CCC2)cc1OCCC`, the “% Inhibition” value turned out to be 1% and the Z score was -0.21.
Consider `CC(NC(=O)C1C2CCCCC21)c1nc[nH]n1` (stereo not drawn), for which the “% Inhibition” value is -14% and the Z score was 2.47.
In the case of `CC1CC(C)CN(C(C)(C)CNC(=O)NC(C)C)C1` (stereo not drawn), the “% Inhibition” value is given as -12% and the Z score is 2.36.
With `Cc1cnc(C)c(-c2cc(O)c3c(c2)CN(c2ncc(C)c(N)n2)CCO3)n1`, the “% Inhibition” value came out at 0% and the Z score is listed as -0.03.
For `Cc1ccc(CN(C)C(=O)N[C@H]2CCCc3ccccc32)nc1` the same measures were -9% and 1.34.
Regarding `O=C1CCCC[C@@](Cc2ccccc2)(C(=O)N2CCN(Cc3ccc4c(c3)OCO4)CC2)N1`, the “% Inhibition” value was -14% and the Z score is listed as 1.56.
With `O=S(=O)(c1cn[nH]c1)N1CCCO[C@@H](CN2CCCCC2)C1`, the “% Inhibition” value is listed as -11% and the Z score is on record as 1.22.
Consider `O=S(=O)(Nc1ccc2c(c1)CCC2)c1ccc2c(c1)OCCO2`, for which the “% Inhibition” value was 11% and the Z score is reported as -1.36.
As to `C[C@@]1(C(=O)NCc2ccccc2)CCC(=O)N1CCC1=CCCCC1`, the “% Inhibition” value is reported as 2% and the Z score is recorded as -0.26.
Consider `CCc1ccc(CNC(=O)c2cnn(-c3ncccc3-c3nc(C)no3)c2C)cc1`, for which the “% Inhibition” value is recorded as -12% and the Z score was determined as 1.82.
For `COc1cccc(C(=O)N2CCc3c(c(-c4nncn4CC4CC4)nn3C)C2)c1`, in that order: -17% and 2.5.
For `COc1c(Br)cccc1CCN=C(N(C)C)N(C)C`, in that order: -7% and 0.96.
In the case of `O=C(NCc1cccc(Cl)c1F)c1ncoc1C1CC1`, the “% Inhibition” value is given as -27% and the Z score was 3.43.
For `CC(C)C(=O)NCC(=O)N1CC[C@@]2(CCCN(CCCc3ccccc3)C2)C1`, the “% Inhibition” value was -7% and the Z score is given as 1.41.
For `COCCC(=O)NCCc1ncc(C)n1C(C)C` the same measures were -13% and 1.43.
`CCN(CC)c1onc(-c2ccccc2)c1CN(C[C@H]1CCCO1)C(=O)c1ccc(F)cc1`: the “% Inhibition” value is -2% and the Z score stood at 0.33.
Regarding `Cc1ccc(=O)n(CC(=O)N2CCOC[C@H]2C2CCC2)n1`, the “% Inhibition” value came to 30% and the Z score is reported as -3.38.
On to `CC(C)c1cc(C(=O)N(C)Cc2nccn2C)no1`, for which the “% Inhibition” value stood at 1% and the Z score was -0.25.
For the compound `Cc1ccc2c(c1)[C@@H](NCc1ccco1)CC2`, the “% Inhibition” value is given as -5% and the Z score was 0.61.
On to `O=C(O)C[C@@H]1CCN(C(=O)C2CCCC2)C[C@@H]1CCN1CCN(c2ccccc2)CC1`, for which the “% Inhibition” value stood at 4% and the Z score is -0.69.
For `Cn1nc(CN2C[C@H](O)[C@@H](N3CCCOCC3)C2)c2c(Cl)cccc21` the same measures were -7% and 1.4.
For `CCn1nncc1CN1CCOC[C@H]1c1ccc(COC)o1` the same measures were 2% and -0.47.
Regarding `CN1CCCN(C(=O)c2nn(C)c3c2CN(Cc2ccc(OC(F)(F)F)cc2)C3)CC1`, the “% Inhibition” value is recorded as -11% and the Z score is on record as 1.42.
With `O=C(NCCc1ccc(-c2ccsc2)s1)c1ccsc1`, the “% Inhibition” value is listed as -4% and the Z score stood at 0.81.
For `CC[C@H](NCc1cc2ccc(C)cc2nc1N1CCOCC1)c1cccs1`, in that order: -11% and 2.12.
For `Cc1cccc(-c2noc(CNC(=O)c3ccccc3CCc3ccccc3)n2)c1` the same measures were -6% and 0.89.
Turning to `CC(C)(O)[C@H]1CCN(S(=O)(=O)c2ccc3[nH]cnc3c2)C1`, the “% Inhibition” value is listed as -27% and the Z score was 2.34.
As to `CN1C(=O)[C@H](Cc2nc(C3CC3)nn2-c2cccc3cccnc23)N(C)C1=O`, the “% Inhibition” value is 1% and the Z score is listed as -0.08.
As for `Cc1cc2nc3n(c(=O)c2n1CC(=O)N[C@@H](C)c1ccccc1)CCCCC3`, the “% Inhibition” value was -1% and the Z score is given as 0.23.
On to `O=c1[nH]c2ccccc2c(=O)n1[C@H]1CCS(=O)(=O)C1`, for which the “% Inhibition” value was -3% and the Z score turned out to be 0.28.
On to `C[C@H]1CN(C(=O)c2cc(-c3ccc(F)cc3)[nH]n2)CCO1`, for which the “% Inhibition” value was -9% and the Z score is given as 0.78.
As to `CC(=O)N[C@@H](Cc1ccccc1)C(C)(C)C`, the “% Inhibition” value was found to be 6% and the Z score is listed as -0.94.
For `O=C(NCc1ccco1)N1CCOc2ccc(C(=O)N3CCCC3)cc2C1`, in that order: 2% and -0.29.
For the compound `CC1CC(C(=O)O)CCN1C(=O)OC(C)(C)C` (stereo not drawn), the “% Inhibition” value is reported as -9% and the Z score came to 1.33.
As for `CC(=O)c1cnc(NCc2ccc(N3CCC[C@H](C)C3)cc2)nc1C`, the “% Inhibition” value is on record as -7% and the Z score is recorded as 0.64.
For `COC1CCN(C(=O)N(C[C@H](O)c2ccc(F)cc2)C2CC2)CC1` the same measures were 10% and -1.96.
Turning to `CCn1c([C@H]2CCCN(C(C)=O)[C@H]2C)nnc1N1CCC(OC)CC1`, the “% Inhibition” value is given as -11% and the Z score is listed as 1.88.
Turning to `CCN1c2ccc(F)cc2C(=O)NC12CCN(C(=O)c1cc(F)cc(F)c1)CC2`, the “% Inhibition” value was found to be 2% and the Z score was -0.33.
Turning to `Cc1c(CNCCN2CCCC[C@@H]2CO)cc(C#N)n1C`, the “% Inhibition” value is on record as -4% and the Z score amounted to 0.73.
Turning to `Cc1c[nH]c([C@H](C)NC(=O)Cc2c(C)n[nH]c2C)n1`, the “% Inhibition” value worked out at 7% and the Z score is reported as -0.88.
With `COc1ccccc1Cc1n[nH]c([C@@H](N)C(C)(C)C)n1`, the “% Inhibition” value is on record as -9% and the Z score is on record as 1.8.
For `N#Cc1cccnc1NCCNC(=O)[C@]1(NC(=O)OCc2ccccc2)CCOC1` the same measures were 15% and -1.75.
Regarding `Nc1nc2c(c(NC3Cc4ccccc4C3)n1)CCNCC2`, the “% Inhibition” value was 4% and the Z score is -0.52.
Take `CCc1ccc(S(=O)(=O)N2CC[C@@]3(CO)CN(Cc4ccccc4)C[C@H]3C2)cc1`: the “% Inhibition” value is given as -5% and the Z score stood at 0.56.
In the case of `O=C(Nc1ccccc1Cl)c1cc(OCc2ccccc2)no1`, the “% Inhibition” value is listed as -10% and the Z score stood at 1.84.
For `COc1ccc(CNc2nccc(N3CCC[C@H](O)C3)n2)cc1OC` the same measures were 5% and -0.71.
On to `Cc1cc(C(=O)NCc2ccccc2)cc2c1N(C)S(=O)(=O)c1ccccc1-2`, for which the “% Inhibition” value is 5% and the Z score is on record as -0.58.
On to `CCC(C)(C(=O)NC1CCCC1)N(Cc1cccs1)C(=O)C1CCC(=O)N1` (stereo not drawn), for which the “% Inhibition” value is listed as 1% and the Z score is listed as -0.15.
In the case of `O=C(CN(Cc1ccccc1)C1CCCCC1)NC1CCOCC1`, the “% Inhibition” value is reported as -8% and the Z score worked out at 1.02.
For `CC1=C(CCN2CCN(CCO)CC2)C(C)(C)CCC1` the same measures were 1% and -0.12.
For `O=C(NCc1ccccc1)Nc1cnn(-c2ncncc2N2CCOCC2)c1`, the “% Inhibition” value is given as -3% and the Z score is 0.29.
For `CC(=O)N1CCN(C(=O)[C@H](C)N2C(=O)COc3ccc(C(=O)COc4ccc(F)c(F)c4)cc32)CC1` the same measures were -13% and 1.81.
Take `CC(C)c1nnc(Cn2ncc3ccccc3c2=O)o1`: the “% Inhibition” value was -6% and the Z score stood at 0.81.
For `Cc1cc(=O)[nH]c(CCNC(=O)c2cccc(OC(F)F)c2)n1`, the “% Inhibition” value is -3% and the Z score worked out at 0.62.
Take `CNc1ccc(C)cc1CN[C@@H]1COC[C@@H]1O`: the “% Inhibition” value was -4% and the Z score came to 0.49.
With `Cc1cc(C)c(C#N)c(N2CCC(CCCn3ccnc3)CC2)n1`, the “% Inhibition” value is recorded as -5% and the Z score is recorded as 0.52.
As to `COc1ccc(CC[C@H]2CCCCN2C(=O)c2cnc[nH]2)cc1OC`, the “% Inhibition” value was -2% and the Z score stood at 0.33.
Consider `CCCN1N=C(C(=O)N2CCCCCC2)S(=O)(=O)c2ccc(C)cc21`, for which the “% Inhibition” value is -9% and the Z score came out at 1.16.
`Cc1cc(-c2ccc(C)c(S(=O)(=O)CCC(=O)Nc3c(C)cccc3C)c2)on1`: the “% Inhibition” value came out at 14% and the Z score is listed as -1.89.
As for `O=C(CCS(=O)(=O)c1cccc2nsnc12)Nc1ccc2c(c1)OCO2`, the “% Inhibition” value is -7% and the Z score came to 1.01.
For the compound `O=C(NCc1ccnc(-c2cccnc2)c1)c1ccc(Br)cc1`, the “% Inhibition” value is -5% and the Z score was 0.72.
For `CCn1ccc(C(=O)N2CCC(Cc3ccc(COCCOC)cc3)CC2)n1`, the “% Inhibition” value was -13% and the Z score was 2.42.
On to `Cn1nc(C(=O)N2CC3(CCC3)[C@@H]2C2CC2)cc1OC(F)F`, for which the “% Inhibition” value was -1% and the Z score stood at 0.15.

Values taken from ChEMBL document CHEMBL4888484, “Replenishing the malaria drug discovery pipeline: Screening and hit evaluation of the MMV Hit Generation Library 1 (HGL1) against asexual blood stage Plasmodium falciparum ,using a nano luciferase reporter read-out” (2022).
